# PubChem BioAssay AID686978 (National Center for Advancing Translational Sciences (NCATS), 2013)
# “And” between values parts separate entries of the source, which are not always exact repeats. Equal values may be shown once. Among all 420,000 compounds or so, about 64,000 (15%) were called active. Inconclusive means that the source gave no clear call. Such entries were picked first, then a sample of the others. Calls follow the shape of the dose curve; as a rule, active = well fitted inhibition curve with a large enough effect; inconclusive = small, poorly fitted or top-dose-only effect; inactive = flat fitted curve, though single readings scatter. Potencies of inconclusive entries are left out as doubtful fits. A structure can be active in one record and inactive in another.
# Test: qHTS for Inhibitors of human tyrosyl-DNA phosphodiesterase 1 (TDP1): qHTS in cells in absence of CPT; also: nearly all actives have a fitted effect of over 55% in size
# Conditions: DT40 Tdp1-/- hTDP1 cells, no CPT, ATP luminescence, 48 h; activity change, negative = growth inhibition: at 46.2 µM (top of the series) unless noted
# How it was run: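 Stably hTDP1-transfected Tdp1-null chicken DT40 cells were treated with library compounds minus camptothecin and grown for at least 48 hr at 37 °C, after which cellular ATP was quantified by luminescence.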
# % is scaled to controls: 0 for no effect and ±100 for the full control effect; potency is read from the fitted curve at half-maximal effect; tags tell the direction and shape of the fitted curve.
SMILES,Potency,"activity change, negative = growth inhibition"
CCCCCCn1c(SCCOC)nc2c1c(=O)[nH]c(=O)n2C,"inconclusive [inhibitor, single point]",–
COc1ccc(C2C(=O)N(C3CCCCC3)CC(=O)N2Cc2ccc3c(c2)OCO3)cc1 (stereo unspecified),"inconclusive [inhibitor, partial curve]",–
O=C(NCc1cccs1)C1Cc2c(-c3ccccc3Oc3ccccc3)ccnc2O1 (stereo unspecified),"inconclusive [inhibitor, single point]",–
Cc1nnc(NC(=O)c2ccc3ccccc3n2)s1,"inconclusive [inhibitor, single point]",–
O=C(Nc1nc(-c2ccccn2)cs1)C1CCCC1,active: 5.17 µM,–
Cc1[nH]c2ccccc2c1/C=N/NC(=O)c1cc(-c2cccs2)[nH]n1,active: 20.6 µM,–
COc1ccc(/C=C/C(=O)CCC(=O)O)cc1,–,inactive: -16.3%
COC(=O)COc1ccc(-n2cnnn2)cc1,–,inconclusive: -28% [inhibitor]
COc1cc(OC)cc(N(C(=O)C2COc3ccccc3O2)C(C(=O)NC2CCCCC2)c2ccc(O)cc2)c1 (stereo unspecified),"inconclusive [inhibitor, single point]",–
CSc1nnc(-c2sc3cc(C(F)(F)F)cnc3c2-c2ccccn2)n1C,"inconclusive [inhibitor, partial curve]",–
CC(NC(=O)CSc1ncn[nH]1)c1ccc(Cl)cc1Cl (stereo unspecified),–,inactive: -2.58%
CCC(CC)NC(=O)Cc1ccccc1OC,–,inactive: 3.48%
Nc1ccccc1SCC1CSc2nc3ccccc3c(=O)n21 (stereo unspecified),–,inactive: -12.3%
CCN(Cc1nc(-c2ccc(C)cc2)no1)C(=O)c1ccco1,"inconclusive [inhibitor, single point]",–
CCc1ccc(N2CC(C(=O)N/N=C/c3cc([N+](=O)[O-])ccc3O)CC2=O)cc1 (stereo unspecified),"inconclusive [inhibitor, partial curve, poor fit]",–
COc1cc(C(=O)NNC2=CC(=O)CC(C)(C)C2)cc(OC)c1OC,–,inactive: -11.6%
CCCc1nc2oc(C(=O)c3ccccc3)c(N)c2c2c1COC(C)(C)C2,–,inconclusive: -30.5% [inhibitor]
NC(=O)C1(N2CCCCC2)CCN(C(=S)Nc2ccc(F)cc2)CC1,–,inactive: 2.23%

SMILES,Potency,"activity change, negative = growth inhibition"
COC(=O)COc1cc2ccccc2cc1C(=O)Nc1ccccc1,"inconclusive [inhibitor, single point]",–
Cc1ccc(S(=O)(=O)N(CC(=O)NN=C2CCN(C)CC2)c2ccc(C(C)C)cc2)cc1,–,inactive: 0.382%
CCC(C)(C)NC(=O)/C=C/c1cc(OC)c(OC)c(S(=O)(=O)N2CCc3ccccc32)c1,–,inactive: -16%
Cc1cccc(C)c1NC(=O)Cn1c(=O)c(N2CCCCC2)c(N)n(C)c1=O,–,inconclusive: -30.6% [inhibitor]
CNC(=O)c1cc2c(=O)n3cc(C)ccc3nc2n(C(C)C)c1=N,"inconclusive [inhibitor, partial curve]",–
CON(c1nc(Cl)nc(N(C)C)n1)S(=O)(=O)c1ccccc1Cl,–,inconclusive: -38.3% [inhibitor]
Cc1nc2c3ccccc3nc(NNC(=O)CCC(=O)N3CCN(c4ccccc4)CC3)n2n1,"inconclusive [inhibitor, partial curve]",–
O=C(O)CC/C(=N/NC(=O)c1ccc(-c2ccccc2)cc1)c1ccccc1,–,inactive: 3.41%
Cc1ccccc1Cn1cc(NC(=O)c2noc(C(C)C)c2[N+](=O)[O-])cn1,"inconclusive [inhibitor, single point]",–
CC(C)(C)C1COc2ccccc2N1C(=O)c1ccccc1Cl (stereo unspecified),"inconclusive [inhibitor, partial curve]",–
O=C(CSc1ncnc2ccccc12)c1ccc2c(c1)OCCO2,active: 18.4 µM,–
CC1COCC(C)N1C(=O)c1cccnc1 (stereo unspecified),–,inactive: -23.7%
Cc1cccc(N2CCN(S(=O)(=O)c3ccc4[nH]c(=O)ccc4c3)CC2)c1C,"inconclusive [inhibitor, partial curve]",–
CNC[C@H](O)c1ccc(O)c(O)c1,inactive and active: 11.9 µM,–
Cc1ccc(-c2noc(C3CCCN(C(=O)c4ccccc4Br)C3)n2)o1 (stereo unspecified),"inconclusive [inhibitor, single point]",–
CC1=C(C(=O)OCc2ccc(C)cc2)C(c2ccccc2Cl)CC(=O)N1 (stereo unspecified),"inconclusive [inhibitor, partial curve, poor fit]",–
CCOC(=O)c1c(-n2cnnn2)sc(C)c1C,–,inactive: -3.42%
CCOC(=O)/C=c1\s/c(=C\c2ccc(C(=O)OC)cc2)c(=O)n1CC(=O)Nc1ccccc1,"inconclusive [inhibitor, partial curve]",–
